In PubChem BioAssay AID588342 (National Center for Advancing Translational Sciences (NCATS), 2011):
The whole screen tested about 360,000 compounds, of which about 25,000 (6.9%) were called active. The shares of active, inactive and inconclusive entries below differ from those in the screen. Calls come from the whole dose curve; as a rule, active = well fitted inhibition curve with a large enough effect; inconclusive = small, poorly fitted or top-dose-only effect; inactive = flat fitted curve, though single readings scatter. Where the call is inconclusive, the potency comes from a doubtful curve fit.

The molecules below were run against Luciferin 4-monooxygenase (Photinus pyralis) (UniProt P08659) (assay: qHTS profiling assay for firefly luciferase inhibitor/activator using purifed enzyme and Km concentrations of substrates (counterscreen for miR-21 project)). Settings: purified FLuc, luminescence inhibition; series mostly up to 57.5 µM.
Method in brief: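 Purified P. pyralis luciferase (10nM final) with 10uM D-luciferin and 10uM ATP (Km levels) in 50mM Tris acetate pH 7.5, 10mM Mg acetate, 0.01% Tween-20, 0.05% BSA; qHTS 6-point titration, ~60 µM downward; luminescence read.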
Note: nearly all actives have a fitted effect of over 55% in size.
Potency is the fitted concentration of half-maximal effect; tags give direction and shape of the fitted curve.
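Throughout, for activity change, negative = inhibition: plate controls were vehicle for no effect and reference inhibitor for full effect.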

Chain of UniProt P08659 (P08659 whole entry, looked up): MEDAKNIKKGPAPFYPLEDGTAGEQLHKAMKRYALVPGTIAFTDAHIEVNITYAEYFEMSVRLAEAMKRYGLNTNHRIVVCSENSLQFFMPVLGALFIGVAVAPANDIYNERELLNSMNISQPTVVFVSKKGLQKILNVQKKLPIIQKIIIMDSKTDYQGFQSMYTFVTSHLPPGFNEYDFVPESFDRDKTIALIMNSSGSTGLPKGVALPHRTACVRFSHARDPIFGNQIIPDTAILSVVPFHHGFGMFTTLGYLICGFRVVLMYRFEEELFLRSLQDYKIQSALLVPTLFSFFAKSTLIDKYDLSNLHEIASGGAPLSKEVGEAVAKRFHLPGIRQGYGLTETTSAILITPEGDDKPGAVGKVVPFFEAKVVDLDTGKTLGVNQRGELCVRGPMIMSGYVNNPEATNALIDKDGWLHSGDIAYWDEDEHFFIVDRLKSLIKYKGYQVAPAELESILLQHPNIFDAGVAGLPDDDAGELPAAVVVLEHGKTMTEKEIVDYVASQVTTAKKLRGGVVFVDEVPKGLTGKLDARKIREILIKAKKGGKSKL

| SMILES | Potency | activity change, negative = inhibition |
| --- | --- | --- |
| COc1ccccc1C(=O)NC(=O)COC(=O)C1CC1 | active: 9.53 µM | – |
| S=C(NCCC1=CCCCC1)Nc1ccccc1 | inconclusive: 19 µM [inhibitor, partial curve] | – |
| COC(=O)CSc1ccc2c(N)c(C(=O)OC)sc2c1 | active: 19 µM | – |
| Cc1cc(C)c2nc(NC(=O)c3cc(C)on3)sc2c1 | inconclusive: 26.9 µM [inhibitor, single point] | – |
| CCCCOc1ccc(NC(=O)c2cnc(C)cn2)cc1 | inconclusive: 16.9 µM [inhibitor, partial curve] | – |
| O=C(Nc1ccccc1C(=O)OCC(=O)N1CCc2ccccc2C1)c1ccco1 | inconclusive: 26.9 µM [inhibitor, single point] | – |
| N=c1ccn(Cc2ccc(Cl)cc2)cc1 | inactive | – |
| CCOc1cccc2sc(NC(=O)CS(=O)(=O)c3ccc(C)cc3)nc12 | inactive | – |
| CCOc1ccc(-c2nc(CSCC(=O)NCCN3CCOCC3)c(C)o2)cc1 | inconclusive: 33.8 µM [inhibitor, partial curve, poor fit] | – |
| COc1ccc(-c2csc(N3CCSCC3)n2)cc1 | inconclusive: 4.78 µM [inhibitor, partial curve, poor fit] | – |
| COc1ccc(NC(=O)c2ccc(C)cc2)c[n+]1[O-] | inconclusive: 33.8 µM [inhibitor, partial curve, poor fit] | – |
| CC(C)OC(=O)CSc1nc2ccccc2s1 | active: 23.9 µM | – |
| CCCC(=O)c1ccc2c(c1)OCCO2 | inconclusive: 23.9 µM [inhibitor, single point] | – |
| CCOC(=O)CN=C1CC(C)(C)CC2=C1Sc1ncnc(N(C)C)c1N2 | inconclusive: 30.1 µM [inhibitor, partial curve, poor fit] | – |
| COc1ccc2c(c1)C1=NN(/C(C)=C/C(C)=O)C(c3cccc(F)c3)C1CC2 (stereo not drawn) | inconclusive: 30.1 µM [inhibitor, partial curve, poor fit] | – |
| Cc1ccc2oc(C(=O)Nc3cccc(-c4nc5ccccc5s4)c3)c(C)c2c1 | inconclusive: 5.36 µM [inhibitor, partial curve] | – |
| COC(=O)CCCN1C(=O)c2cccc3cccc(c23)C1=O | inconclusive: 37.9 µM [inhibitor, partial curve, poor fit] | – |
| Cc1ccc(O)c(-c2cc(C(=O)NCc3ccc4c(c3)OCO4)[nH]n2)c1 | inconclusive: 26.9 µM [inhibitor, partial curve, poor fit] | – |
| COc1ccc(COc2cccc(C=O)c2)cc1 | active: 23.9 µM | – |
| O=C(Nc1ccc2c(c1)OCCO2)C1CCC1 | – | inactive: 0.857% [at 2.3 µM] |
| N/C(=N\OC(=O)C1CCCCC1)c1cccc([N+](=O)[O-])c1 | active: 10.7 µM | – |
| Cc1cccc(C(C)C)c1NC(=O)C(C)OC(=O)Cc1n[nH]c(=O)c2ccccc12 (stereo not drawn) | inactive | – |
| CC1=C(C)CC(C(=O)NCc2ccccn2)C(C(=O)O)C1 (stereo not drawn) | inactive | – |
| Cc1ccc(NC(=S)/N=C(\N)Nc2nc(C)c3ccccc3n2)cc1C | active: 10.7 µM | – |

| SMILES | Potency | activity change, negative = inhibition |
| --- | --- | --- |
| Cc1cnn(-c2cc(N/N=C/c3ccccc3F)ncn2)c1 | inactive | – |
| CCCn1c2ccccc2c2cnn(CC(=O)N(Cc3ccccc3)C(C)C)c(=O)c21 | inactive | – |
| CCCCCOc1ccc(CSc2ncn[nH]2)cc1 | active: 12 µM | – |
| O=C(Nc1ccc(F)cc1)NC1CCN(Cc2ccccc2)CC1 | inactive | – |
| COc1cc(Cl)ccc1OCc1cc(C(=O)NCC(C)(C)N2CCOCC2)no1 | active: 15.1 µM | – |
| C=CCn1c(C)cc(C(=O)CSc2nnc(NC(C)C)s2)c1C | inconclusive: 23.9 µM [inhibitor, partial curve] | – |
| Cc1ccc2c(CN3CCC(C)CC3)cc(=O)oc2c1 | active: 7.57 µM | – |
| Cn1c(-c2ccccc2)cnc1NCc1cc(Cl)ccc1O | inconclusive: 23.9 µM [inhibitor, partial curve, poor fit] | – |
| O=c1[nH]c(COc2ccccc2)nc2ccccc12 | inconclusive: 19 µM [inhibitor, partial curve] | – |
| CCn1c(=NC(=O)c2cccc(N3C(=O)CCC3=O)c2)sc2c(C)ccc(OC)c21 | inconclusive: 13.5 µM [inhibitor, partial curve] | – |
| NS(=O)(=O)c1ccc(N/N=C/c2ccc(O)c(O)c2O)c([N+](=O)[O-])c1 | inconclusive: 5.36 µM [inhibitor, partial curve, poor fit] | – |
| CCCc1cc(C(=O)NC2CCCCC2)no1 | inconclusive: 16.9 µM [inhibitor, partial curve] | – |
| COc1ccc2oc(=O)c(-c3cn4c(n3)sc3cc(F)ccc34)cc2c1 | inconclusive: 21.3 µM [inhibitor, partial curve, poor fit] | – |
| Cc1cccc(N2CCN(C(=O)C3CCN(S(=O)(=O)c4c(C)noc4C)CC3)CC2)c1C | inactive | – |
| O=C(O)Cc1ccc(NC(=O)c2ccc(NC(=O)C3CC3)cc2)cc1 | active: 16.9 µM | – |
| O=C(NCCS(=O)(=O)N1CCCCCC1)c1ccccc1 | inactive | – |
| O=C(/C=C/c1ccc(Cl)c([N+](=O)[O-])c1)c1cccnc1 | inactive | – |
| CCCCCC(=O)NNC(=S)NC(=O)c1ccc([N+](=O)[O-])cc1 | inconclusive: 16.9 µM [inhibitor, partial curve] | – |
| COC(=O)c1ccc(OC)c(Cn2c(=O)n(-c3cccc(Cl)c3)c(=O)c3c4c(sc32)CN(C(C)=O)CC4)c1 | inactive | – |
| O=C(Nc1cccc(Cl)c1)OCCOc1ccccc1 | active: 21.3 µM | – |
| COc1cc2nc(/C=C/c3ccc(N(C)C)cc3)sc2cc1SC | inconclusive: 23.9 µM [inhibitor, partial curve, poor fit] | – |
| CCOC(=O)c1cc(-c2ccc(N3CCOCC3)cc2)nn1-c1ccccc1C(=O)O | inconclusive: 23.9 µM [inhibitor, partial curve] | – |
| COc1cc2cccc(OC)c(=O)c2c(O)c1OC | inconclusive: 16.9 µM [inhibitor, partial curve] | – |
| CCOc1ccc(CCNC(=O)c2ccc(-c3nc(COc4ccc(C)cc4)c(C)o3)cc2)cc1 | inactive | – |
